Data from publication PMC4336329 (PLoS ONE, 2015).
Screen size: about 310,000 compounds; about 14,000 (4.5%) showed an effect of 50% or more. Effects have a minus sign here. The list shows a part of the results. Where a SMILES comes first, the peptide text is derived from it. The star is where a group is joined. OBn = c1ccc(CO*)cc1

target: human ether-à-go-go-related gene (hERG) potassium channel (human, UniProt Q12809); assay: primary screen, population patch clamp on CHO cells stably expressing hERG
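Also: peak tail current of the secondary pulse compared with the same well before compound.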

Sequence of human ether-à-go-go-related gene (hERG) potassium channel (Q12809 whole entry, looked up): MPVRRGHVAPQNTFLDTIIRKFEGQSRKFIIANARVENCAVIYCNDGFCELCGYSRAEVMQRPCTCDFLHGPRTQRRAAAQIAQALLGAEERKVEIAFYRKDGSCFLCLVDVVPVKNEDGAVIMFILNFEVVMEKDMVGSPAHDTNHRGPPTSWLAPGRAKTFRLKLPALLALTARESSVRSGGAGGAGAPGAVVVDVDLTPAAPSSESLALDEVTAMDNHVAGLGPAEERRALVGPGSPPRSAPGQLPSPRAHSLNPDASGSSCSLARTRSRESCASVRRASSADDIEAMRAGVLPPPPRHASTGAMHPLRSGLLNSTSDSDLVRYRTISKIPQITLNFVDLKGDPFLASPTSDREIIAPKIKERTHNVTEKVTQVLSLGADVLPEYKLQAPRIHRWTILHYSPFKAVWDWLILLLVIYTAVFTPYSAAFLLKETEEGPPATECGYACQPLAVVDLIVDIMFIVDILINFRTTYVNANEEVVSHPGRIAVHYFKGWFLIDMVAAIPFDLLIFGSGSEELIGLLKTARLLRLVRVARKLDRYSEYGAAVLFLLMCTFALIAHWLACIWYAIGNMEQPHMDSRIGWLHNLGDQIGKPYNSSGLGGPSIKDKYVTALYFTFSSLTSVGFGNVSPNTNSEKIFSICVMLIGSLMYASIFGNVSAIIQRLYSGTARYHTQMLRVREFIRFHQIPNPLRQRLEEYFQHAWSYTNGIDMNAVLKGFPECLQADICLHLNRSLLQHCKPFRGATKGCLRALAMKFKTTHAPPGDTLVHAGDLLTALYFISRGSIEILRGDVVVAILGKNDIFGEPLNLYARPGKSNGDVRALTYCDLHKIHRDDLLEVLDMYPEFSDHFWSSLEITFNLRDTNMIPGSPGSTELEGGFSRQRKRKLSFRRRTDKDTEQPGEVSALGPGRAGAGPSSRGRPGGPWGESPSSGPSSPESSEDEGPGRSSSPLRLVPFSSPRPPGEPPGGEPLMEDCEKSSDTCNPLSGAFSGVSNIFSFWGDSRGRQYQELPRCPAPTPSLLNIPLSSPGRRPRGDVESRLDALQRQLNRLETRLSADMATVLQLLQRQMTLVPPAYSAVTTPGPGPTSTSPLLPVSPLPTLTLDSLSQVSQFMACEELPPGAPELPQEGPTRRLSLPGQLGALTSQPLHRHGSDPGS

Structure (SMILES)	hERG current change (%, negative = inhibition) at 10uM [%]
CC(=O)NCC(=O)N[C@@H](CC(=O)OCc1ccccc1)C(=O)OCc1ccccc1 (Ac-Gly-Asp(OBn)-OBn)	8.93
COc1ccc(C(=O)Nc2cc(S(=O)(=O)N3CCCCC3)ccc2OC)cc1	16.2
Cc1nc2ccccc2c2oc(C(=O)NCc3ccc4c(c3)OCO4)cc12	-15
N#CC(c1ccc(Cl)cc1)c1cccc(Cl)n1 (stereo not drawn)	1.46
N#CCC(=N)N1CCN(c2ccccc2)CC1	1.97
CCN1/C(=C2/SC(=S)N(NC(C)=O)C2=O)Sc2ccc(OC)cc21	5.14
C=CCn1c(O)c(N=O)c2cc(C)ccc21	-8.69
C=CCN(C(=O)Nc1ccc(F)cc1)C1CC(=O)N(c2ccc(OC)cc2)C1=O (stereo not drawn)	-14.3
C=CCNc1nnc(Cl)c2ccccc12	-10.4
CC1CC(C)CN(CC(O)COCc2ccccc2F)C1.Cl (stereo not drawn)	-23.4
C=CC(C)C(C(=O)c1ccccc1)N(C)C (stereo not drawn)	27.8
CCc1ccc(NCc2cc3c(C)nn(-c4ccccc4)c3[nH]c2=O)cc1	15.7
COc1ccc(C2c3c(ncn(Cc4ccco4)c3=N)Oc3ccc4ccccc4c32)cc1 (stereo not drawn)	-7.04
COc1cc(C(CC(=O)N2CCCC2)c2c(OC)cc(OC)c3ccc(=O)oc23)cc(OC)c1OC (stereo not drawn)	2.42
O=C(CN(C(=O)CNS(=O)(=O)c1ccc(F)cc1)c1ccccc1)NCc1ccco1	-7.36
O=C(COC(=O)c1ccc(S(=O)(=O)N2CCCC2)cc1)Nc1ccccc1	3.13
CCc1ccc2[nH]c(=O)c(C(c3nnnn3CCOC)N3CCN(c4ccc(F)cc4)CC3)cc2c1 (stereo not drawn)	-47.1
CC(=O)N(c1ccccc1)c1nc(/C=C/C(=O)O)cs1	28
CCCCOCCCNC(=O)c1ccccc1OCC	-0.501
COCCNC(=O)c1ccc(-n2c(SCc3ccncc3)nc3ccccc3c2=O)cc1	-48.4
COC(=O)CSc1nc2sc3c(c2c(=O)[nH]1)CCC3	12.8
COCCn1c(=NC(=O)/C=C/c2ccccc2Cl)sc2cc(NC(C)=O)ccc21	7.83
Fc1ccc(/C=N/Nc2nnnn2-c2ccccc2)cc1	15.7

Structure (SMILES)	hERG current change (%, negative = inhibition) at 10uM [%]
CCc1cccc(NC(=O)CC2Oc3ccccc3NC2=O)c1 (stereo not drawn)	15.4
COc1nc(-c2ccccc2)c2cc(C)ccc2n1	13.3
Cc1ccc(C(=O)C(C)[n+]2cccc(C(N)=O)c2)cc1.[Br-] (stereo not drawn)	38.4
Cc1cc2cc(CNS(=O)(=O)N(C)C)ccc2[nH]1	9.91
Cc1cc(C)c(C)c(S(=O)(=O)N2CCC(C(=O)NCCCN3CCOCC3)CC2)c1C	-24.9
CCN(CC)S(=O)(=O)c1ccc(OC)c(NC(=O)CC2CCCC2)c1	-10.8
Cn1c(=O)n(C)c2cc([N+](=O)[O-])c(N3CCN(S(=O)(=O)c4ccc5ccccc5c4)CC3)cc21	1.85
O=C1/C(=C/c2ccc(O)c(O)c2)Oc2cc(O)ccc21	6.12
S=c1[nH]c2cc3ccccc3cc2[nH]1	12.2
Clc1ccccc1-c1ccc(/C=N/Nc2nncc(-c3ccccc3)n2)o1	2.11
O=C(CN1CCN(CCN2C(=O)c3cccc4cccc(c34)C2=O)CC1)c1ccc(F)cc1	-42.4
Cc1nc2nc(C)c(CCC(=O)O)c(C)n2n1	8.07
COc1ccc(CN2CCCC(CNC(=O)c3ccc(F)cc3)C2)c(F)c1 (stereo not drawn)	-75.4
CCN(CC)c1ccc(/C=N/OCC(=O)Nc2cccc(C)c2)cc1	-2.16
Cl.O=C(CN1CCCC1)Nc1cccc(Cl)c1	-3.66
O=C(Cc1cccs1)Nc1ccc(F)cc1	10
COC(=O)c1ccccc1NC(=O)c1ccc2c(c1)CC(C)O2 (stereo not drawn)	0.94
COc1ccc(C(O)P(=O)(OC(C)C)OC(C)C)cc1 (stereo not drawn)	13.7
Cc1nnc2sc(-c3ccc(NC(=O)CSc4ccc(Cl)cc4)cc3)nn12	-10.2
COCCn1c(=S)[nH]c2cc(C(=O)N3CCCC(C)C3)ccc2c1=O (stereo not drawn)	16.2
Cc1ccc(C)c(S(=O)(=O)N2CCCOC2CNC(=O)C(=O)NCCCn2ccnc2)c1 (stereo not drawn)	14
COc1ccc(-c2cnc3nc[nH]c(=O)c3n2)cc1	4.74
COC(=O)/C(C#N)=C/c1c(-c2ccccc2)nc2n1CCS2	-8.67

Structure (SMILES)	hERG current change (%, negative = inhibition) at 10uM [%]
Nc1nc(CN2CCOCC2)cs1	9.15
O=C(Cn1c(=O)n(Cc2ccco2)c(=O)c2c3c(sc21)CCCC3)Nc1ccccc1	18
COc1ccc2oc(=O)c(-c3csc(Nc4ccc(O)cc4)n3)cc2c1	-2.45
Cc1ccc(/C=N/n2c(C)cc(C)c(C#N)c2=O)cc1	-2.69
O=c1[nH][nH]c2ccccc2c1=O	19.5
COCCn1c(/C=C/c2ccccc2)nc2ccccc21	-26.7
COc1ccc(-c2cc(C(F)(F)F)n3nc(C(=O)Nc4cc(C)on4)cc3n2)cc1OC	6.7
COc1ccc(C)cc1S(=O)(=O)N1CCN(S(=O)(=O)c2cc(C(=O)O)ccc2C)CC1	3.86
CCCC/C(C)=N/NC(=O)NC1CCCCC1	9.48
CCOc1ccc(NS(=O)(=O)c2ccc3c(c2)CCN3C(C)=O)cc1	5.55
Clc1ccc(-c2nnc(-c3ccccc3)o2)cn1	-2.13
CCN(CC)c1ccc(CC2C(=O)N(C)C(=O)N(C)C2=O)cc1	12.4
Brc1ccc(-c2nnc3sc(CNC4CCCC4)cn23)cc1	-16.4
O=C(NCCCc1ccccc1)c1ccc(CS(=O)Cc2ccccc2Cl)o1 (stereo not drawn)	-76.2
COc1ccc(CCn2c(O)c(C3=c4ccccc4=NC3=O)sc2=S)cc1OC	26.6
Cn1c(=O)n(C)c2cc(N3CCOCC3)c(NC(=O)c3ccc(F)cc3)cc21	-8.15
O=C(Sc1cccc2cccnc12)c1ccccc1Br	0.877
CCCN1C(=O)c2ccccc2NC1c1ccc(O)c(OCC)c1 (stereo not drawn)	6.64
COc1ccc2c(c1)CC/C(=C\C=C\c1ccccc1)C2=O	12.9
COC(=O)Cc1ccc(NC(=S)N2CCN(CCO)CC2)cc1	3.63
C/C(=N\Nc1ccc(C(F)(F)F)cc1[N+](=O)[O-])C(C)C	19.6
Cc1ccccc1C(=O)OC1CCN(C)CC1.Cl	6.06
CCC(Sc1ncccc1C(=O)O)C(=O)N1CCCC1 (stereo not drawn)	-1.88

Structure (SMILES)	hERG current change (%, negative = inhibition) at 10uM [%]
CCn1c(SCC(=O)Nc2ccc(C)cc2)nnc1-c1ccccn1	-59.1
CC(=O)c1cnc2c(-c3ccccc3)c(-c3ccccc3)nn2c1C	15.3
Cc1cc(Cl)ccc1NC(=S)NCc1ccc(F)cc1	11
CCOC(=O)c1ccc(NC(=O)c2ccnn2C)cc1	4.61
Cn1nc(C(=O)Nc2nc3ccc(S(C)(=O)=O)cc3s2)ccc1=O	-20.7
CC(C)N1C(=O)CCC1C(=O)NC1CCCC1 (stereo not drawn)	-3.05
CC(C)c1ccc(NC(=O)CSc2ncccc2C(=O)Oc2cccc([N+](=O)[O-])c2)cc1	8.39
CCOc1cccc2c1OC(c1cc(OC)c(OC)c(OC)c1)N1N=C(c3ccc(C)o3)CC21 (stereo not drawn)	5.07
CCc1ccccc1N(CC(=O)NCCSCc1ccco1)S(C)(=O)=O	-15.7
O=C(COC(=O)c1cn(-c2ccccc2)nc1-c1cccnc1)NC1CC1	-0.964
CC1(C)CC(=O)C2=C(C1)N1C(=C(C#N)C2c2ccccc2Cl)N=C(N)c2ccccc21 (stereo not drawn)	-15.8
CCc1noc(C)c1C(=O)Nc1cc(C(F)(F)F)ccc1-n1cncn1	-21.3
CCCn1c(SCC(=O)Nc2cc(Cl)ccc2OC)n[nH]c1=O	-24.7
S=C(NCCc1cccc(Cl)c1)NC1CCCCC1	6.84
O=C(O)C1(P(=O)(c2ccccc2)c2ccccc2)CCC1	-3.46
COc1ccc(C(=O)NCc2ccc(Cl)cc2)cc1S(=O)(=O)N1CCCC1	-39.2
COC(=O)C1=C[C@@H](C(=O)OC)[C@@H]2C3=C(C(=O)[C@@]2(C)NC(=O)c2ccccc2)[C@H](c2ccccc2)n2c(=O)n(-c4ccccc4)c(=O)n2[C@@H]3C1	20.6
Cc1cc(Cl)ccc1NC(=S)NCc1ccccc1	13.6
COc1cc2c(cc1OC)CN(Cc1ccc(F)cc1)CC2	-19
COc1cc(-c2n[nH]c(=S)n2-c2ccc(Br)cc2)cc(OC)c1OC	6.64
Cc1cccc(OCC2=NS(=O)(=O)c3ccccc3N2)c1	-25.8
